# From the supplement of paper PMC12355420
# Where a name gives a salt, the structure may show the parent alone. This is one part of the list. Single values are uncertain, as repeats are few or missing.
# System: HeLa VPS33A reporter cells
# Assay: relative cell viability (CellMask signal) vs DMSO (fraction of DMSO); HeLa model of a glycosaminoglycan (GAG) storage disease; KI is knock-in and KO knock-out; SDC1 is syndecan 1; higher = less cytotoxic
# Conditions: 50 µM; 24 h
# 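Also: primary screen of an FDA-approved drug library in HeLa reporter cells in 96-well format, CellMask signal normalized to DMSO-treated wells set as 1, under 0.5 deemed highly cytotoxic.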
row,SMILES,relative cell viability
1,Clc1ccc(Nc2nnc(Cc3ccncc3)c3ccccc23)cc1 [Vatalanib (PTK787) 2HCl],0.0274
2,CC(C)(C)NC(=O)[C@@H]1C[C@@H]2CCCC[C@@H]2CN1C[C@@H](O)[C@H](Cc1ccccc1)NC(=O)[C@H](CC(N)=O)NC(=O)c1ccc2ccccc2n1 [Saquinavir mesylate],0.00371
3,CCc1cnn2c(NCc3ccc[n+]([O-])c3)cc(N3CCCC[C@H]3CCO)nc12,0.0171
4,CC1=C(/C=C/C(C)=C/C=C/C(C)=C\C(=O)O)C(C)(C)CCC1 [Isotretinoin],0.304
5,CNC(=O)c1cc(Oc2ccc(NC(=O)Nc3ccc(Cl)c(C(F)(F)F)c3)cc2)ccn1 [Sorafenib Tosylate],0.0317
6,CC(NCCC(c1ccccc1)c1ccccc1)c1ccccc1 (stereo unspecified) [Fendiline (hydrochloride)],0.00775
7,"CO[C@H]1C[C@@H]2CC[C@@H](C)[C@@](O)(O2)C(=O)C(=O)N2CCCC[C@H]2C(=O)O[C@H]([C@H](C)C[C@@H]2CC[C@@H](OP(C)(C)=O)[C@H](OC)C2)CC(=O)[C@H](C)/C=C(\C)[C@@H](O)[C@@H](OC)C(=O)[C@H](C)C[C@H](C)/C=C/C=C/C=C/1C [Ridaforolimus (Deforolimus, MK-8669)]",0.0229
8,COC(=O)N[C@H](C(=O)N1CCC[C@H]1c1ncc(-c2ccc(-c3ccc(-c4cnc([C@@H]5CCCN5C(=O)[C@@H](NC(=O)OC)C(C)C)[nH]4)cc3)cc2)[nH]1)C(C)C,0.0709
9,CN(C)CC/C=C1/c2ccccc2Sc2ccc(Cl)cc21 [Chlorprothixene],0.00547
10,CN[C@H]1CC[C@@H](c2ccc(Cl)c(Cl)c2)c2ccccc21 [Sertraline HCl],0.00569
11,CC[C@H](C)[C@H](N)C1=N[C@H](C(=O)N[C@@H](CC(C)C)C(=O)N[C@H](CCC(=O)[O-])C(=O)N[C@H](C(=O)N[C@H]2CCCCNC(=O)[C@H](CC(N)=O)NC(=O)[C@@H](CC(=O)[O-])NC(=O)[C@H](Cc3cnc[nH]3)NC(=O)[C@@H](Cc3ccccc3)NC(=O)[C@H]([C@@H](C)CC)NC(=O)[C@@H](CCCN)NC2=O)[C@@H](C)CC)CS1.[Zn+2] [Bacitracin Zinc],0.0117
12,CC(=O)[C@]1(O)Cc2c(O)c3c(c(O)c2[C@@H](O[C@H]2C[C@H](N)[C@H](O)[C@H](C)O2)C1)C(=O)c1ccccc1C3=O [Idarubicin HCl],0.00462
13,C=C1C(=O)O[C@H]2[C@H]1CC/C(C)=C/CC[C@@]1(C)O[C@@H]21 [Parthenolide],0.00761
14,CN1CCN(CCOc2cc(OC3CCOCC3)c3c(Nc4c(Cl)ccc5c4OCO5)ncnc3c2)CC1 [Saracatinib (AZD0530)],0.00679
15,C[C@@H](O)[C@H]1C(=O)N2C(C(=O)OCOC(=O)C(C)(C)C)=C(SC3CN(C4=NCCS4)C3)[C@H](C)[C@H]12 [Tebipenempivoxil],0.245
16,CO[C@H]1C[C@H](O[C@H]2[C@H](C)O[C@@H](O[C@@H]3/C(C)=C/C[C@@H]4C[C@@H](C[C@]5(C=C[C@H](C)[C@@H](C6CCCCC6)O5)O4)OC(=O)[C@@H]4C=C(C)[C@@H](O)[C@H]5OC/C(=C\C=C\[C@@H]3C)[C@]54O)C[C@@H]2OC)O[C@@H](C)[C@@H]1O [Doramectin],0.0117
17,CCOc1nc2cccc(C(=O)OC(C)OC(=O)OC3CCCCC3)c2n1Cc1ccc(-c2ccccc2-c2nn[nH]n2)cc1 (stereo unspecified) [Candesartan Cilexetil],0.0199
18,CC(C)Nc1cc(-c2c[nH]c(C(=O)N[C@H](CO)c3cccc(Cl)c3)c2)c(Cl)cn1,0.00659
19,CC(COc1ccccc1)N(CCCl)Cc1ccccc1 (stereo unspecified) [Phenoxybenzamine HCl],0.394
20,C=C(NC(=O)C(=C)NC(=O)c1csc(C2=N[C@@H]3c4csc(n4)[C@H]4NC(=O)c5csc(n5)[C@H]([C@](C)(O)[C@@H](C)O)NC(=O)[C@H]5CSC(=N5)/C(=C/C)NC(=O)[C@H]([C@@H](C)O)NC(=O)c5csc(n5)[C@]3(CC2)NC(=O)[C@H](C)NC(=O)C(=C)NC(=O)[C@H](C)NC(=O)[C@H]([C@@H](C)CC)N[C@@H]2C=Cc3c([C@H](C)O)cc(nc3[C@H]2O)C(=O)O[C@@H]4C)n1)C(N)=O [Thiostrepton],0.0194
21,C[C@H]1O[C@@H](O[C@H]2CC[C@@]3(C)[C@@H](CC[C@]4(C)[C@@H]3C=C[C@]35OC[C@@]6(CCC(C)(C)C[C@H]63)[C@@H](O)C[C@]54C)[C@]2(C)CO)[C@H](O)[C@@H](O[C@@H]2O[C@H](CO)[C@@H](O)[C@H](O)[C@H]2O)[C@H]1O [Saikosaponin A],0.00636
